According to US6284456, “Transcriptional coactivator that interacts with Tat protein and regulates its binding to TAR RNA, methods for modulating Tat transactivation, and uses therefor” (The Salk Institute for Biological Studies, dated 2001):

Biological target: GST (glutathione S-transferase) on glutathione beads (Schistosoma japonicum (Blood fluke), UniProt P08515 = GST)
Assay: glutathione bead pull-down of recombinant cyclin T1, immunoblot

B1: recombinant cyclin T1, thrombin-cleaved from GST-cyclin T1 (other)
chain: [letters of about 300 residues omitted]TILNMISQSSSDTTIAGLMSMSTSTTSAVPSLPVSEESSSNLTSVEMLPGKRWLSSQPSFKLEPTQGHRTSENLALTGVDHSLPQDGSNAFISQKQNSKSVPSAKVSLKEYRAKHAEELAAQKRQLENMEANVKSQYAYAAQNLLSHHDSHSSVILKMPIEGSENPERPFLEKADKTALKMRIPVAGGDKAASSKPEEIKMRIKVHAAADKHNSVEDSVTKSREHKEKHKTHPSNHHHHHNHHSHKHSHSQLPVGTGNKRPGDPKHSSQTSNLAHKTYSLSSSFSSSSSTRKRGPSEETGGAVFDHPAKIAKSTKSSSLNFSFPSLPTMGQMPGHSSDTSGLSFSQPSCKTRVPHSKLDKGPTGANGHNTTQTIDYQDTVNMLHSLLSAQGVQPTQPTAFEFVRPYSDYLNPRSGGISSRSGNTDKPRPPPLPSEPPPPLPPLPK
- binding result: no binding
